PubChem BioAssay AID1508623 (National Center for Advancing Translational Sciences (NCATS), 2021)
The whole screen tested about 48,000 compounds, of which about 450 (0.94%) were called active. About 19% were inconclusive and are not listed. Calls follow the shape of the dose curve; as a rule, active = well fitted inhibition curve with a large enough effect; inconclusive = small, poorly fitted or top-dose-only effect; inactive = no such curve, though single readings can be large or run the other way. The list shows a part of the results.

assay: Primary qHTS for Identification of Small Molecule Inhibitors of Huntingtin Promoter Activity; conditions: HEK293 HTT promoter firefly luciferase reporter (activity 0% = vehicle and -100% = no light), 24 h; series mostly up to 57.5 µM; activity change, negative = inhibition: at the top concentration; also: nearly all actives have a fitted effect of over 50% in size
How it was run: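 Luminescence was read after Dual-Glo reagent and a 10 min room-temperature incubation. Values were normalized to vehicle (0% activity) and zero RLU (-100% activity). Reporter HEK293 cells had been exposed to compounds (up to 57.5 uM final) for 24 h.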

SMILES | activity change, negative = inhibition
Cc1ccc(NC(=O)CCCn2c(=O)c3cccn3c3cccnc32)c(C)c1 | inactive: -4.01%
COc1cccc(CNc2sc3c(c2C(=O)Nc2ccc(OC)cc2OC)CCC3)c1 | inactive: -9.45%
CCC(Sc1nc2nccnc2c(=O)n1Cc1ccc(Cl)cc1)C(=O)NC1CCCCC1 (stereo unspecified) | inactive: -15.7%
COc1ccc(-n2ccn3c(CC(C)(C)CC(=O)O)nnc3c2=O)cc1 | inactive: -12.3%
O=c1c(-c2cc(-c3ccccc3)nc3c2COc2ccc(Cl)cc2-3)coc2ccccc12 | inactive: -6.28%
CCOc1ccc(NC(=O)c2cnn3c2NC(C)=C(C(=O)Nc2ccc(Cl)cc2)C3c2ccc(OC)c(OC)c2)cc1 (stereo unspecified) | inactive: -10.1%
O=C(O)C(=O)Nc1cccc(C2=NN=N[N]2)c1 | inactive: -1.18%
CC(C)CNC(=O)C(=O)Nc1c2c(nn1-c1ccc(Cl)cc1)CSC2 | inactive: -23%
CC(=O)c1ccc(NC(=O)CSc2nccn2C2CCCC2)cc1 | inactive: -8.77%
Cc1cccc(N2CCN(c3ccc4cc(S(=O)(=O)N5CCC(C)CC5)ccc4n3)CC2C)c1 (stereo unspecified) | inactive: -3.38%
CCOc1ccc(NC(=O)CSc2nc3ccccc3nc2N2CCOCC2)cc1 | inactive: -26.7%
COc1ccc(CNC(=O)c2cc3cccc4c3n2CC(C)S4)cc1 (stereo unspecified) | inactive: -21.1%
COc1ccc(S(=O)(=O)NC(C)(C)CO)cc1-c1nnc2c3ccccc3c(C)nn12 | inactive: -5.01%
O=c1c(N2CCN(c3ccc(F)cc3)CC2)csc2ccc(F)cc12 | inactive: 1.44%
CCCn1c(=O)c2sccc2n2c(CCCC(=O)N3CCN(c4ccc(OC)cc4)CC3)nnc12 | inactive: -25.3%
Cc1nn(-c2cccc(Cl)c2)c2nc(-c3cccnc3)cc(C(F)(F)F)c12 | inactive: -9.11%
CCOCCCNC(=O)CN1C(=O)COc2ccc(S(=O)(=O)N3CCOCC3)cc21 | inactive: -8.68%
COc1ccc(-c2cc(C(F)(F)F)nc(SCCC(=O)Nc3ccc(F)cc3F)n2)cc1 | inactive: -13.5%
CC(=O)c1ccc(NC(=O)CSc2nnc3c(n2)[nH]c2ccccc23)cc1 | inactive: -21.4%
O=C(Nc1ccc(F)cc1F)c1ccc(-n2cnc3cccnc32)cc1 | inactive: -2.55%
CCOC(=O)c1ccc(O)cc1 | inactive: 4.81%

SMILES | activity change, negative = inhibition
O=C(CCC1N=C2c3ccccc3N=C(SCc3ccc(F)cc3)N2C1=O)N1CCN(c2ccccc2)CC1 (stereo unspecified) | inactive: -3.87%
COc1ccc(N2CCN(C(=O)CCCCn3c(=O)[nH]c4ccsc4c3=O)CC2)cc1 | inactive: -17.9%
Clc1ccc(-c2nc3ncccn3c2Nc2ccc3c(c2)OCCO3)cc1 | inactive: 5.76%
COC(=O)c1c(SCC(=O)Nc2ccccc2C(F)(F)F)[nH]c2ccc(Cl)cc2c1=O | inactive: -9.74%
CCOC(=O)C1CCN(C(c2ccc(C)cc2)c2sc3nc(-c4ccco4)nn3c2O)CC1 (stereo unspecified) | inactive: 0%
CCOc1ccc(/C=C(\C#N)C(=O)Nc2sc3c(c2C(=O)OC)CCC3)cc1OC | inactive: -2.54%
Cc1cccc(Nc2cc(C)nc3nc(-c4ccccc4)nn23)c1 | inactive: -14%
CC1=C(C(=O)Nc2cccc(F)c2)C2(CCCCC2)OC1=O | inactive: -21.6%
Cc1ccc(-c2nc(CCNC(=O)C(=O)Nc3ccc(C)c(Cl)c3)cs2)cc1 | inactive: 3.87%
COc1ccccc1C(=O)Nc1ccccc1C(=O)OCc1cc(=O)n2ccsc2n1 | inactive: -8.53%
CCOC(=O)c1sc(NC(=O)c2nc3nc(C)cc(C(F)F)n3n2)c(C(=O)OC(C)C)c1C | inactive: -1.11%
CC(C)(C)NC(=O)[C@@H]1CN(Cc2cccnc2)CCN1C[C@@H](O)C[C@@H](Cc1ccccc1)C(=O)N[C@H]1c2ccccc2C[C@H]1O | inactive: 4.04%
CCCN(CCC)C(=O)Cn1c(SCc2cccc(F)c2)nc2cccnc21 | inactive: -11.1%
Cc1nc(-c2ccc(F)cc2)sc1CCNC(=O)c1ccccc1C(F)(F)F | inactive: -35.2%
Cc1ccc(CNC(=O)c2cc3c(=O)n4cccc(C)c4nc3s2)cc1 | inactive: -8.89%
Cc1ccc(CNC(=O)CN2C(=O)C3CCCCN3c3ccc(C(=O)N(C)C)cc32)cc1 (stereo unspecified) | inactive: -5.15%
CC1=C(C(=O)Nc2ccccc2C)C(c2sccc2C)n2ncnc2N1 (stereo unspecified) | inactive: -6.87%
Cc1ccc(S(N)(=O)=O)cc1NC(=O)c1c(-c2c(Cl)cccc2Cl)noc1C | inactive: -18.4%
Cc1cccc(CSc2ncc(Cl)c(C(=O)Nc3nnc(C)s3)n2)c1 | inactive: -15%
CCN(CC)CCNC(=O)CN1C(=O)CSc2ccc(S(=O)(=O)N3CCOCC3)cc21 | inactive: -1.61%
Cc1ccccc1CSc1nc2c([nH]c3ccccc32)c(=O)n1-c1ccccc1 | inactive: -18.7%

SMILES | activity change, negative = inhibition
CCc1nnc2c(NCc3ccccc3)nc3ccccc3n12 | inactive: -6.68%
CCOc1ccc(-c2cc(NC(=O)Nc3ccccc3Cl)c(C(=O)OC)s2)cc1 | inactive: 92.7%
Cc1ccc(-c2nnc(Nc3ccc(F)cc3)c3ccccc23)cc1S(=O)(=O)NC(C)C | inactive: 53.3% [at 11.5 µM]
N#Cc1c(C(F)(F)F)cc(-c2cccs2)nc1SCC(=O)Nc1cccc(Br)c1 | inactive: -21.2%
Cc1ccc(C(=O)N2CCN(c3ccccc3)CC2)cc1NC(=O)c1nsc2ccccc12 | inactive: -3.28%
CC(C)c1ccc(NC(=O)C2CCCN(S(=O)(=O)c3ccc4[nH]c(=O)oc4c3)C2)cc1 (stereo unspecified) | inactive: -20.7%
CCN(CC)S(=O)(=O)c1ccc2c(c1)c(=O)c(C(=O)N1CCN(c3ccc(OC)cc3)CC1)cn2C | inactive: -1.15%
CCc1ccccc1NC(=O)c1nc2nc(C)cc(C(F)F)n2n1 | inactive: -7.92%
CCCN(CCC)CCCNC(=O)Cn1ncn2c(cc3sc(CC)cc32)c1=O | inactive: 3.3%
Cc1ccc(CNC(=O)CN2N=C(c3ccc(C)cc3)CCC2=O)cc1 | inactive: -3.69%
Cn1c(-c2cccc(Br)c2)cnc1NCc1cccc(F)c1 | inactive: -20.5%
COc1ccc2cc1Oc1ccc(cc1)C[C@H]1c3c(cc4c(c3Oc3cc5c(cc3OC)CCN(C)[C@@H]5C2)OCO4)CCN1C | inactive: -16.4%
Cc1cccc(-c2nnc(SCC(=O)Nc3ccc(C)c(C)c3)o2)c1 | inactive: 2.66%
CCCS(=O)(=O)c1c(S(=O)(=O)CCC)c2cc(C(C)(C)C)ccn2c1C(=O)c1ccc(C)cc1 | inactive: -13.7%
COc1ccc(Nc2nnc(-c3cc4cc(Cl)ccc4oc3=O)s2)cc1 | inactive: 5.18%
COc1cccc(CN2C(=O)c3ccccc3C2C(=O)NCCc2ccccc2)c1 (stereo unspecified) | inactive: 13.6%
CCC(C)NC(=O)c1ccc(Cn2c(=O)c3cccn3c3cccnc32)cc1 (stereo unspecified) | inactive: 0.421%
COc1cc(SC)ccc1C(=O)N1CCn2c3c(c4cc(C)ccc42)CCCC31 (stereo unspecified) | inactive: -8.51%
Cc1ccc(C(=O)Nc2c(C)nc3ccccn3c2=O)cc1 | inactive: 58.2%
